Data from patent US8507219B2, “Method of treating inflammation with statins” (MUSC Foundation for Research Development, priority 1997, dated 2013).
Read-outs that look alike come from different tables or passages of the source.

Assays:
[1] = system: NO production in rat primary astrocytes; details: for % Inhibition: of LPS (1.0 μg/ml)-induced nitrite, L-NMA 0.1 mM with LPS
[2] = system: NO production in rat primary astrocytes; experiment: cells; details: Astrocyte; for inhibition at 20000 µM: Astrocytes, NAC 20 mM 2 h prior
[3] = LPS 1.0 μg/ml, 24 h, forskolin 10 μM, 1,9-dideoxyforskolin 10 μM, isoproterenol 10 μM, IBMX mM, Rolipram 10 μM, added 15 min prior to LPS
[4] = of LPS-induced nitrite, forskolin 10 μM, isoproterenol 10 μM, IBMX mM, Rolipram 10 μM, 15 min prior to LPS
[5] = LPS 1.0 μg/ml, 24 h, serum-free, arginase 100 units/ml, L-NMA 0.1 mM added with LPS, lovastatin, mevastatin 10 μM 8 h before LPS
[6] = 24 h, arginase 100 units/ml, lovastatin, mevastatin 10 μM 8 h before LPS

Nc1ncnc2c1ncn2[C@@H]1O[C@@H]2COP(O)(=S)O[C@H]2[C@H]1O (some centres unmarked) [(Sp)-cAMP]
LPS- and/or cytokine-induced NO production [1]: inhibited the LPS-stimulated NO production as nitrite

COC[C@@H]([C@H](O)[C@H](O)C(=O)NCC[C@H](C)c1nc(/C=C/C[C@@H]2O[C@]3(C[C@@H](O)[C@@H]2C)O[C@H]([C@H](C[C@H](O)[C@H](C)[C@H](O)[C@H](C)/C=C(C)/C(C)=C/C=C/C(C)=C\C#N)OC)[C@H](OP(=O)(O)O)C3(C)C)co1)N(C)C [Calyculin A]
Nitrite [1]: 67.8 ± 7.3 nmol/rag/24 h

CC1(C)C(C=C(Cl)Cl)C1C(=O)OC(C#N)c1cccc(Oc2ccccc2)c1 (centres unmarked) [Cypermethrin]
Nitrite [1]: 27.6 ± 2.7 nmol/rag/24 h

CC1(C)[C@H](C(=O)O[C@H](C#N)c2cccc(Oc3ccccc3)c2)[C@@H]1C=C(Br)Br [Deltamethrin]
Nitrite [1]: 26.8 ± 2.9 nmol/rag/24 h

CC(C)C(C(=O)OC(C#N)c1cccc(Oc2ccccc2)c1)c1ccc(Cl)cc1 (centres unmarked) [Fenvalerate]
Nitrite [1]: 27.1 ± 2.1 nmol/rag/24 h

CC(C)Cn1c(=O)n(C)c(=O)c2[nH]cnc21 [IBMX, 3-isobutyl-1-methylxanthine]
Nitrite [1, 3]: 6.8 ± 1.3 nmol/mg/24 h | Inhibition [1, 4]: 78%

CNC(=N)NCCC[C@H](N)C(=O)O [L-NMA, N^G-methyl-L-arginine]
Nitrite [1]: 5.2 ± 0.4 nmol/rag/24 h | Nitrite [1, 5]: 5.5 ± 0.7 nmol/mg/24 h | % Inhibition [1, 6]: 88%

CC[C@H](C)C(=O)O[C@H]1C[C@@H](C)C=C2C=C[C@H](C)[C@H](CC[C@@H]3C[C@@H](O)CC(=O)O3)[C@H]21 [Lovastatin]
inhibition of NO production ([1]; 8 to 10 h of preincubation with lovastatin): about 90% | Production of NO ([1]; Astrocytes, 10 μM lovastatin or 5 mM NaPA 8 h, then LPS 1.0 μg/ml, 24 h): 5.2 ± 0.4 nmol/24 h/mg protein | Nitrite [1, 5]: 5.2 ± 0.5 nmol/mg/24 h | Nitrite ([1]; compound alone, no LPS, 24 h): 2.9 ± 0.3 nmol/mg/24 h | inhibition in LPS-induced NO production ([1]; lovastatin added to the cells along with LPS): 25% | % Inhibition [1, 6]: 90%

CC[C@H](C)C(=O)O[C@H]1CCC=C2C=C[C@H](C)[C@H](CC[C@@H]3C[C@@H](O)CC(=O)O3)[C@H]21 [Mevastatin]
inhibition at 10 µM ([2]; of LPS (1.0 μg/ml)-induced nitrite, 24 h, arginase 100 units/ml, L-NMA 0.1 mM with LPS, lovastatin, mevastatin 10 μM 8 h before LPS): 88% | Nitrite [1, 5]: 5.5 ± 0.5 nmol/mg/24 h | Nitrite ([1]; compound alone, no LPS, 24 h): 2.8 ± 0.4 nmol/mg/24 h

CC(=O)N[C@@H](CS)C(=O)O [NAC, N-acetyl cysteine]
inhibition at 20000 µM ([2]; stimulus IFN-γ): 80% | inhibition at 20000 µM ([2]; stimulus IL-1β): 74% | inhibition at 20000 µM ([2]; stimulus LPS + IFN-γ): 54% | inhibition at 20000 µM ([2]; stimulus LPS + IL-1β): 79% | inhibition at 20000 µM ([2]; stimulus LPS + TNF-α): 64% | inhibition at 20000 µM ([2]; stimulus LPS): 80% | inhibition at 20000 µM ([2]; stimulus TNF-α + IFN-γ): 63% | inhibition at 20000 µM ([2]; stimulus TNF-α + IL-1β): 86% | inhibition at 20000 µM ([2]; stimulus TNF-α): 55% | Nitrite ([1]; Astrocytes, stimulus IFN-γ, NAC 20 mM 2 h prior, 24 h): 4.4 ± 1.2 nmol/mg/24 h | Nitrite ([1]; Astrocytes, stimulus IL-1β, NAC 20 mM 2 h prior, 24 h): 7.8 ± 1.8 nmol/mg/24 h | Nitrite ([1]; Astrocytes, stimulus LPS + IFN-γ, NAC 20 mM 2 h prior, 24 h): 23.5 ± 1.4 nmol/mg/24 h | Nitrite ([1]; Astrocytes, stimulus LPS + IL-1β, NAC 20 mM 2 h prior, 24 h): 4.5 ± 2.8 nmol/mg/24 h | Nitrite ([1]; Astrocytes, stimulus LPS + TNF-α, NAC 20 mM 2 h prior, 24 h): 15.2 ± 1.5 nmol/mg/24 h | Nitrite ([1]; Astrocytes, stimulus LPS, NAC 20 mM 2 h prior, 24 h): 5.6 ± 1.6 nmol/mg/24 h | Nitrite ([1]; Astrocytes, stimulus TNF-α + IFN-γ, NAC 20 mM 2 h prior, 24 h): 14.1 ± 2.04 nmol/mg/24 h | Nitrite ([1]; Astrocytes, stimulus TNF-α + IL-1β, NAC 20 mM 2 h prior, 24 h): 5.2 ± 0.7 nmol/mg/24 h | Nitrite ([1]; Astrocytes, stimulus TNF-α, NAC 20 mM 2 h prior, 24 h): 10.5 ± 2.3 nmol/mg/24 h

O=C([O-])Cc1ccccc1.[Na+] [NaPA, sodium salt of phenylacetic acid]
Production of NO [1]: 5.4 ± 0.6 nmol/24 h/mg protein

COc1ccc(C2CNC(=O)C2)cc1OC1CCCC1 (centres unmarked) [Rolipram]
inhibition at 10 µM [2, 4]: 80% | Nitrite [1, 3]: 6.2 ± 1.2 nmol/mg/24 h

C=C[C@@]1(C)CC(=O)[C@@H]2[C@@]3(C)CCCC(C)(C)[C@@H]3[C@H](O)[C@H](OC(C)=O)[C@@]2(C)O1 [dideoxyforskolin, 1,9-dideoxyforskolin]
Nitrite [1, 3]: 31.2 ± 4.1 nmol/mg/24 h

C=C[C@@]1(C)CC(=O)[C@]2(O)[C@@]3(C)[C@@H](O)CCC(C)(C)[C@@H]3[C@H](O)[C@H](OC(C)=O)[C@@]2(C)O1 [forskolin]
inhibition at 0.1 µM ([2]; 24 h, read-out: inhibition of NO production, forskolin 0.1 μM (lowest dose with significant effect), LPS 1 μg/ml, 24 h): 30% | inhibition at 10 µM ([2]; 24 h, read-out: inhibition of NO production, forskolin 10 μM, LPS 1 μg/ml, 24 h): ~90% | inhibition at 10 µM [2, 4]: 85% | Nitrite [1, 3]: 4.7 ± 1.2 nmol/mg/24 h

CC(C)NCC(O)c1ccc(O)c(O)c1 (centres unmarked) [isoproterenol]
inhibition at 10 µM [2, 4]: 74% | Nitrite [1, 3]: 8.1 ± 2.3 nmol/mg/24 h
